Laboratory results reported in publication PMC9314279.
No constants are given. Whether binding was seen depends on the method and setting. For part of these data: In cells and extracts the contact can be indirect. Some entries that bind do so weakly or less than the wild type. For part of these data: Tags and fused reporters may be left off the sequences shown.

T1: Kv channel subunit Kv8.2 (murine) (mouse (endogenous in murine retina)) (UniProt Q8CFS6)
T1 sequence: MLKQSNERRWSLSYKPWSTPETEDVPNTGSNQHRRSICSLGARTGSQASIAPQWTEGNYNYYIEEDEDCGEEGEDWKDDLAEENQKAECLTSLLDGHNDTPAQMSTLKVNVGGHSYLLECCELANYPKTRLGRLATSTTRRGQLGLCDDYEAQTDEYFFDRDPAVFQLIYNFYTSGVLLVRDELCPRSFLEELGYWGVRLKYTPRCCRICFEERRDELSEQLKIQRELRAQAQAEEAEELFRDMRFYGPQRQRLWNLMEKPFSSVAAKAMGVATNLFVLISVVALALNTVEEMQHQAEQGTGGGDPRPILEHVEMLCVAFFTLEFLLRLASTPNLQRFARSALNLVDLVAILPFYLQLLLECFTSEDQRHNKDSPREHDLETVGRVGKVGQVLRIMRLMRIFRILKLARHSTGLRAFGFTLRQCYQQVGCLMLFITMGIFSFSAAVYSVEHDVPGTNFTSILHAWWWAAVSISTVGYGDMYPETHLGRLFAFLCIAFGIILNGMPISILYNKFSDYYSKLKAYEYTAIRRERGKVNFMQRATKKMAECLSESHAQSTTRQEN

T2: Kv2.1 plus Kv8.2, heterologously co-expressed in Hek293 cells (human) (UniProt Q14721+Q8TDN2)
T2 sequence 1: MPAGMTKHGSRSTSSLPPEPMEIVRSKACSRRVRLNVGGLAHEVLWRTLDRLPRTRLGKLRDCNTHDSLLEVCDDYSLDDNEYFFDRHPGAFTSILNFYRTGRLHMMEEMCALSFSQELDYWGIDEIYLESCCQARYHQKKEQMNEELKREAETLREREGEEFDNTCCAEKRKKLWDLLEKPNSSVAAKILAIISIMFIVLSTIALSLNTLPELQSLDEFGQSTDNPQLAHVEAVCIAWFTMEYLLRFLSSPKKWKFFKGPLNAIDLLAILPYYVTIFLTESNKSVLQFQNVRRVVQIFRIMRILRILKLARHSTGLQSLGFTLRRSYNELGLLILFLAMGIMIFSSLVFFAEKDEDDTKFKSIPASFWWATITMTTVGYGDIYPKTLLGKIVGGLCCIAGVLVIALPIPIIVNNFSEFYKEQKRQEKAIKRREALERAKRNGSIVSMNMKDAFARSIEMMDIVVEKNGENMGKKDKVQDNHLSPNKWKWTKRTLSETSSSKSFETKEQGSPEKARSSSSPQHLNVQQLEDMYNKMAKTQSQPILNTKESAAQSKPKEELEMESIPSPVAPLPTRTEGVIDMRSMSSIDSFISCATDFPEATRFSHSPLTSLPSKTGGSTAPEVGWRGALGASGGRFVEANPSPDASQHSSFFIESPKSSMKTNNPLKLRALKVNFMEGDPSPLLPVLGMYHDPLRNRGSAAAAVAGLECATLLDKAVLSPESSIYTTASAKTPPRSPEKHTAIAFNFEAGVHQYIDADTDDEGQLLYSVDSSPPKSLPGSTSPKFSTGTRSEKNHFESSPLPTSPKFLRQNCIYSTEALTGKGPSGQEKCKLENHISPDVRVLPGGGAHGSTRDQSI
T2 sequence 2: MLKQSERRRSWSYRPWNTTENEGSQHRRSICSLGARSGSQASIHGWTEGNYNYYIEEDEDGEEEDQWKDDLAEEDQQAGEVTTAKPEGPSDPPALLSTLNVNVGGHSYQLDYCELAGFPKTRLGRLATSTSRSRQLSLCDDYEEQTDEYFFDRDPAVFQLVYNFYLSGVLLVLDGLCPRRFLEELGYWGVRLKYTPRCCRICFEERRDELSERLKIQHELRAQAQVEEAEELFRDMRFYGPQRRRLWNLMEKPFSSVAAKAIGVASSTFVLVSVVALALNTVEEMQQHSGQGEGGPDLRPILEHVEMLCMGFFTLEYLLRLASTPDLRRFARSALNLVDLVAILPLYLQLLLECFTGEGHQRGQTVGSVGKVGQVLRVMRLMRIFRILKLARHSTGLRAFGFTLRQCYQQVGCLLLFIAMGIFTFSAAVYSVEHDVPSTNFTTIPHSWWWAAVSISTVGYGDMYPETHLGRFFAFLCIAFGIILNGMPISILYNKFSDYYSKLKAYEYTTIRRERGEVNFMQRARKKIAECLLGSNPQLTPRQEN

T3: Kv2.1, heterologously expressed on Hek293 cells (human) (UniProt Q14721)
T3 sequence: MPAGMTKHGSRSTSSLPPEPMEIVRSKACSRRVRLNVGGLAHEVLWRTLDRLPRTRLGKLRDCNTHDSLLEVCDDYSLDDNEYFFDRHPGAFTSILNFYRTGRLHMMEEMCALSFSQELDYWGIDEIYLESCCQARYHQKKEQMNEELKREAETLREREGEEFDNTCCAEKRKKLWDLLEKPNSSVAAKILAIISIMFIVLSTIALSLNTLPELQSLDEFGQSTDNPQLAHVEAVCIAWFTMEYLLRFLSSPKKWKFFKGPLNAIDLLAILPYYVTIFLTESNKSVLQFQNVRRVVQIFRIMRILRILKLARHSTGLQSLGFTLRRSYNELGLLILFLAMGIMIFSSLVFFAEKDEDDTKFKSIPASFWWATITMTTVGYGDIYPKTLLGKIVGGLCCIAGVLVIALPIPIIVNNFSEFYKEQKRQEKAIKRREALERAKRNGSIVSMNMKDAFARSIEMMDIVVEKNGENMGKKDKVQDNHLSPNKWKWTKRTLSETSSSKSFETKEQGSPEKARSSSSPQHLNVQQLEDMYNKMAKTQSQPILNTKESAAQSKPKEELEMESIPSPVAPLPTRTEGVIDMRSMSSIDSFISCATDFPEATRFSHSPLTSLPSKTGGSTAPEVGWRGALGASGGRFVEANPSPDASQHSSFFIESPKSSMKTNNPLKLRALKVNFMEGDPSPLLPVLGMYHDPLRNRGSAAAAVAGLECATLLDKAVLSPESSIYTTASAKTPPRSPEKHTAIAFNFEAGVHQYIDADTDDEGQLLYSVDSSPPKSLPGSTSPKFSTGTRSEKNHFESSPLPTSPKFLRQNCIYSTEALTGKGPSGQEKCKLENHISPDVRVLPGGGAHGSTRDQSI


How the values were obtained:
[1] = target: Atp1a3 subunit of the retinal Na/K-ATPase (murine) (mouse (endogenous in murine retina)) (UniProt Q6PIC6); experiment: co-IP; murine retinal lysate (wildtype, P18) in 10 mM CHAPS in TBS; antibodies against Atp1a3, Kv2.1, Kv8.2 or Atp1a1 on Protein A Sepharose beads, overnight at 4 °C, five washes; anti-6*His-tag antibody as control; western blot
[2] = target: T1, Kv channel subunit Kv8.2 (murine) (mouse (endogenous in murine retina)); experiment: as above
[3] = target: retinal Na/K-ATPase (ATP1A3/ATP1B2), heterologously expressed on Hek293 cells (human) (UniProt P13637+P14415); experiment: retinoschisin binding to transfected Hek293 cells, western blot of cell pellets; supernatant of Hek293 cells stably secreting recombinant retinoschisin incubated for 1 h with transfected Hek293 cells; cell pellets blotted after intensive washing; cells with empty vector as negative control
[4] = target: T2, Kv2.1 plus Kv8.2, heterologously co-expressed in Hek293 cells (human); experiment: as above
[5] = target: T3, Kv2.1, heterologously expressed on Hek293 cells (human); experiment: as above

Binder | binding [1] | binding [2] | binding [3] | binding [4] | binding [5]
Atp1b2 subunit of the retinal Na/K-ATPase (murine) (protein, UniProt P14231 1-290) MVIQKEKKSCGQVVEEWKEFVWNPRTHQFMGRTGTSWAFILLFYLVFYGFLTAMFSLTMWVMLQTVSDHTPKYQDRLATPGLMIRPKTENLDVIVNISDTESWGQHVQKLNKFLEPYNDSIQAQKNDVCRPGRYYEQPDNGVLNYPKRACQFNRTQLGDCSGIGDPTHYGYSTGQPCVFIKMNRVINFYAGANQSMNVTCVGKRDEDAENLGHFVMFPANGSIDLMYFPYYGKKFHVNYTQPLVAVKFLNVTPNVEVNVECRINAANIATDDERDKFAGRVAFKLRINKT | binds | binds | – | – | –
recombinant retinoschisin (human) (protein, UniProt O15537 24-224) STEDEGEDPWYQKACKCDCQGGPNALWSAGATSLDCIPECPYHKPLGFESGEVTPDQITCSNPEQYVGWYSSWTANKARLNSQGFGCAWLSKFQDSSQWLQIDLKEIKVISGILTQGRCDIDEWMTKYSVQYRTDERLNWIYYKDQTGNNRVFYGNSDRTSTVQNLLRPPIISRFIRLIPLGWHVRIAIRMELLECVSKCA | – | – | binds | no binding | no binding
Kv channel subunit Kv8.2 (murine) (protein, UniProt Q8CFS6 1-562) MLKQSNERRWSLSYKPWSTPETEDVPNTGSNQHRRSICSLGARTGSQASIAPQWTEGNYNYYIEEDEDCGEEGEDWKDDLAEENQKAECLTSLLDGHNDTPAQMSTLKVNVGGHSYLLECCELANYPKTRLGRLATSTTRRGQLGLCDDYEAQTDEYFFDRDPAVFQLIYNFYTSGVLLVRDELCPRSFLEELGYWGVRLKYTPRCCRICFEERRDELSEQLKIQRELRAQAQAEEAEELFRDMRFYGPQRQRLWNLMEKPFSSVAAKAMGVATNLFVLISVVALALNTVEEMQHQAEQGTGGGDPRPILEHVEMLCVAFFTLEFLLRLASTPNLQRFARSALNLVDLVAILPFYLQLLLECFTSEDQRHNKDSPREHDLETVGRVGKVGQVLRIMRLMRIFRILKLARHSTGLRAFGFTLRQCYQQVGCLMLFITMGIFSFSAAVYSVEHDVPGTNFTSILHAWWWAAVSISTVGYGDMYPETHLGRLFAFLCIAFGIILNGMPISILYNKFSDYYSKLKAYEYTAIRRERGKVNFMQRATKKMAECLSESHAQSTTRQEN | binds | – | – | – | –
